# Data from the supplement of paper PMC8728848.
# This is one part of the list.
# B1: SEX4 (Arabidopsis thaliana), Q944A8 (protein)
# chain: TQAMGAVLTYRHELGMNYNFIRPDLIVGSCLQTPEDVDKLRKIGVKTIFCLQQDPDLEYFGVDISSIQAYAKKYSDIQHIRCEIRDFDAFDLRMRLPAVVGTLYKAVKRNGGVTYVHCTAGMGRAPAVALTYMFWVQGYKLMEAHKLLMSKRSCFPKLDAIRNATIDILTGLKRKTVTLTLKDKGFSRVEISGLDIGWGQRIPLTLGKGTGFWILKRELPEGQFEYKYIIDGEWTHNEAEPFIGPNKDGHTNNYAKVVDDPTSVDGTTRERLSSEDPELLEEERSKLIQFLETCSEAEV
# Columns and labels:
# Assay in all cases: glycan array binding signal (z-score within array); higher = stronger binding
# Conditions in all cases: glycan notation: IUPAC condensed, linker removed
# [1] = target: GlcNAc(b1-6)Gal(b1-4)GlcNAc
# In short: (§1)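 Arrays were curated from the Consortium for Functional Glycomics database, 3228 in total, and kept only where the protein sequence was available. Binding is expressed as a within-array Z-score. This score was averaged across arrays of the same protein sequence at different concentrations or buffers and across linkers, and negative values can be read as non-binding.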
# GlcNAc(b1-6)GalNAc = target: GlcNAc(b1-6)GalNAc
# In short: as §1
# GlcNAc3Prop(b1-4)GlcNAc = target: GlcNAc3Prop(b1-4)GlcNAc
# In short: as §1
# [2] = target: GlcNAc6S(b1-3)Gal(b1-4)GlcNAc
# In short: as §1
# Kdn(a2-3)Gal(b1-3)GalNAc = target: Kdn(a2-3)Gal(b1-3)GalNAc
# In short: as §1
# Kdn(a2-3)Gal(b1-3)GlcNAc = target: Kdn(a2-3)Gal(b1-3)GlcNAc
# In short: as §1
# Kdn(a2-3)Gal(b1-4)Glc = target: Kdn(a2-3)Gal(b1-4)Glc
# In short: as §1
# Kdn(a2-3)Gal(b1-4)GlcNAc = target: Kdn(a2-3)Gal(b1-4)GlcNAc
# In short: as §1
# [3] = target: Kdn(a2-3)Gal(b1-4)[Fuc(a1-3)]GlcNAc
# In short: as §1
# Kdn(a2-6)Gal(b1-4)GlcNAc = target: Kdn(a2-6)Gal(b1-4)GlcNAc
# In short: as §1
# [4] = target: Man(a1-2)Man(a1-2)Man(a1-3)Man
# In short: as §1
# [5] = target: Man(a1-2)Man(a1-2)Man(a1-6)[Man(a1-3)]Man
# In short: as §1
# Man(a1-2)Man(a1-3)Man = target: Man(a1-2)Man(a1-3)Man
# In short: as §1
# [6] = target: Man(a1-2)Man(a1-3)[Man(a1-2)Man(a1-6)]Man
# In short: as §1
# [7] = target: Man(a1-2)Man(a1-3)[Man(a1-2)Man(a1-6)]Man(a1-6)[Man(a1-2)Man(a1-2)Man(a1-3)]Man
# In short: as §1
# [8] = target: Man(a1-2)Man(a1-3)[Man(a1-2)Man(a1-6)]Man(a1-6)[Man(a1-2)Man(a1-2)Man(a1-3)]Man(b1-4)GlcNAc(b1-4)GlcNAc
# In short: as §1
# [9] = target: Man(a1-2)Man(a1-3)[Man(a1-6)]Man(a1-6)[Man(a1-2)Man(a1-3)]Man(b1-4)GlcNAc(b1-4)GlcNAc
# In short: as §1
# [10] = target: Man(a1-2)Man(a1-6)[Man(a1-3)]Man(a1-6)[Man(a1-2)Man(a1-2)Man(a1-3)]Man
# In short: as §1
# [11] = target: Man(a1-2)Man(a1-6)[Man(a1-3)]Man(a1-6)[Man(a1-2)Man(a1-2)Man(a1-3)]Man(b1-4)GlcNAc(b1-4)GlcNAc
# In short: as §1
# Man(a1-3)[Man(a1-6)]Man = target: Man(a1-3)[Man(a1-6)]Man
# In short: as §1
# [12] = target: Man(a1-3)[Man(a1-6)]Man(a1-6)[Man(a1-2)Man(a1-3)]Man(b1-4)GlcNAc(b1-4)GlcNAc
# In short: as §1
# [13] = target: Man(a1-3)[Man(a1-6)]Man(a1-6)[Man(a1-3)]Man
# In short: as §1
# [14] = target: Man(a1-3)[Man(a1-6)]Man(a1-6)[Man(a1-3)]Man(b1-4)GlcNAc(b1-4)GlcNAc
# In short: as §1
# [15] = target: Man(a1-3)[Man(a1-6)]Man(b1-4)GlcNAc(b1-4)GlcNAc
# In short: as §1
# Man(a1-6)Man = target: Man(a1-6)Man
# In short: as §1
# Man(b1-4)GlcNAc = target: Man(b1-4)GlcNAc
# In short: as §1
# Neu5Ac(a2-3)Gal = target: Neu5Ac(a2-3)Gal
# In short: as §1
# [16] = target: Neu5Ac(a2-3)Gal(b1-3)GalNAc
# In short: as §1
# [17] = target: Neu5Ac(a2-3)Gal(b1-3)GalNAc(b1-3)Gal(a1-4)Gal(b1-4)Glc
# In short: as §1
# [18] = target: Neu5Ac(a2-3)Gal(b1-3)GalNAc(b1-4)[Neu5Ac(a2-3)]Gal(b1-4)Glc
# In short: as §1
# [19] = target: Neu5Ac(a2-3)Gal(b1-3)GalNAc(b1-4)[Neu5Ac(a2-8)Neu5Ac(a2-3)]Gal(b1-4)Glc
# In short: as §1
# [20] = target: Neu5Ac(a2-3)Gal(b1-3)GalNAc6S
# In short: as §1
# [21] = target: Neu5Ac(a2-3)Gal(b1-3)GlcNAc
# In short: as §1
# [22] = target: Neu5Ac(a2-3)Gal(b1-3)GlcNAc(b1-2)Man(a1-3)[Neu5Ac(a2-3)Gal(b1-3)GlcNAc(b1-2)Man(a1-6)]Man(b1-4)GlcNAc(b1-4)GlcNAc
# In short: as §1
# [23] = target: Neu5Ac(a2-3)Gal(b1-3)GlcNAc(b1-3)Gal(b1-3)GlcNAc
# In short: as §1
# [24] = target: Neu5Ac(a2-3)Gal(b1-3)GlcNAc(b1-3)Gal(b1-4)GlcNAc
# In short: as §1
# [25] = target: Neu5Ac(a2-3)Gal(b1-3)GlcNAc(b1-3)GalNAc
# In short: as §1
# [26] = target: Neu5Ac(a2-3)Gal(b1-3)GlcNAc6S
# In short: as §1
# [27] = target: Neu5Ac(a2-3)Gal(b1-3)[Fuc(a1-4)]GlcNAc
# In short: as §1
# [28] = target: Neu5Ac(a2-3)Gal(b1-3)[Fuc(a1-4)]GlcNAc(b1-3)Gal(b1-3)[Fuc(a1-4)]GlcNAc
# In short: as §1
# [29] = target: Neu5Ac(a2-3)Gal(b1-3)[Fuc(a1-4)]GlcNAc(b1-3)Gal(b1-4)[Fuc(a1-3)]GlcNAc
# In short: as §1
# [30] = target: Neu5Ac(a2-3)Gal(b1-3)[Neu5Ac(a2-3)Gal(b1-4)]GlcNAc
# In short: as §1
# [31] = target: Neu5Ac(a2-3)Gal(b1-3)[Neu5Ac(a2-6)]GalNAc
# In short: as §1
# Neu5Ac(a2-3)Gal(b1-4)Glc = target: Neu5Ac(a2-3)Gal(b1-4)Glc
# In short: as §1
# [32] = target: Neu5Ac(a2-3)Gal(b1-4)GlcNAc
# In short: as §1
# [33] = target: Neu5Ac(a2-3)Gal(b1-4)GlcNAc(b1-2)Man(a1-3)[GlcNAc(b1-2)Man(b1-4)GlcNAc(b1-2)Man(a1-6)]Man(b1-4)GlcNAc(b1-4)GlcNAc
# In short: as §1
# [34] = target: Neu5Ac(a2-3)Gal(b1-4)GlcNAc(b1-2)Man(a1-3)[Neu5Ac(a2-6)Gal(b1-4)GlcNAc(b1-2)Man(a1-6)]Man(b1-4)GlcNAc(b1-4)GlcNAc
# In short: as §1
# [35] = target: Neu5Ac(a2-3)Gal(b1-4)GlcNAc(b1-3)Gal
# In short: as §1
# [36] = target: Neu5Ac(a2-3)Gal(b1-4)GlcNAc(b1-3)Gal(b1-3)GlcNAc
# In short: as §1
# [37] = target: Neu5Ac(a2-3)Gal(b1-4)GlcNAc(b1-3)Gal(b1-4)GlcNAc
# In short: as §1
# [38] = target: Neu5Ac(a2-3)Gal(b1-4)GlcNAc(b1-3)Gal(b1-4)GlcNAc(b1-3)Gal(b1-4)GlcNAc
# In short: as §1
# [39] = target: Neu5Ac(a2-3)Gal(b1-4)GlcNAc(b1-3)Gal(b1-4)[Fuc(a1-3)]GlcNAc
# In short: as §1
# [40] = target: Neu5Ac(a2-3)Gal(b1-4)GlcNAc(b1-3)GalNAc
# In short: as §1
# [41] = target: Neu5Ac(a2-3)Gal(b1-4)GlcNAc(b1-6)[Gal(b1-3)]GalNAc
# In short: as §1
# [42] = target: Neu5Ac(a2-3)Gal(b1-4)GlcNAc(b1-6)[Neu5Ac(a2-3)Gal(b1-3)]GalNAc
# In short: as §1
# [43] = target: Neu5Ac(a2-3)Gal(b1-4)GlcNAc6S
# In short: as §1
# [44] = target: Neu5Ac(a2-3)Gal(b1-4)[Fuc(a1-3)]GlcNAc
# In short: as §1
# [45] = target: Neu5Ac(a2-3)Gal(b1-4)[Fuc(a1-3)]GlcNAc(b1-3)Gal
# In short: as §1
binder,measurement,setting,value
B1,glycan array binding signal (z-score),[1],-0.512
same,glycan array binding signal (z-score),GlcNAc(b1-6)GalNAc,-0.365
same,glycan array binding signal (z-score),GlcNAc3Prop(b1-4)GlcNAc,-0.353
same,glycan array binding signal (z-score),[2],0.949
same,glycan array binding signal (z-score),Kdn(a2-3)Gal(b1-3)GalNAc,0.126
same,glycan array binding signal (z-score),Kdn(a2-3)Gal(b1-3)GlcNAc,-0.15
same,glycan array binding signal (z-score),Kdn(a2-3)Gal(b1-4)Glc,-0.402
same,glycan array binding signal (z-score),Kdn(a2-3)Gal(b1-4)GlcNAc,0.514
same,glycan array binding signal (z-score),[3],-0.395
same,glycan array binding signal (z-score),Kdn(a2-6)Gal(b1-4)GlcNAc,-0.36
same,glycan array binding signal (z-score),[4],-0.265
same,glycan array binding signal (z-score),[5],0.008
same,glycan array binding signal (z-score),Man(a1-2)Man(a1-3)Man,-0.463
same,glycan array binding signal (z-score),[6],0.147
same,glycan array binding signal (z-score),[7],-0.337
same,glycan array binding signal (z-score),[8],-0.534
same,glycan array binding signal (z-score),[9],0.099
same,glycan array binding signal (z-score),[10],0.144
same,glycan array binding signal (z-score),[11],-0.379
same,glycan array binding signal (z-score),Man(a1-3)[Man(a1-6)]Man,-0.527
same,glycan array binding signal (z-score),[12],0.025
same,glycan array binding signal (z-score),[13],-0.426
same,glycan array binding signal (z-score),[14],0.825
same,glycan array binding signal (z-score),[15],0.176
same,glycan array binding signal (z-score),Man(a1-6)Man,-0.377
same,glycan array binding signal (z-score),Man(b1-4)GlcNAc,-0.294
same,glycan array binding signal (z-score),Neu5Ac(a2-3)Gal,-0.442
same,glycan array binding signal (z-score),[16],-0.334
same,glycan array binding signal (z-score),[17],-0.271
same,glycan array binding signal (z-score),[18],-0.249
same,glycan array binding signal (z-score),[19],0.161
same,glycan array binding signal (z-score),[20],0.306
same,glycan array binding signal (z-score),[21],-0.569
same,glycan array binding signal (z-score),[22],0.628
same,glycan array binding signal (z-score),[23],0.056
same,glycan array binding signal (z-score),[24],-0.336
same,glycan array binding signal (z-score),[25],2.39
same,glycan array binding signal (z-score),[26],-0.48
same,glycan array binding signal (z-score),[27],-0.212
same,glycan array binding signal (z-score),[28],-0.352
same,glycan array binding signal (z-score),[29],0.033
same,glycan array binding signal (z-score),[30],0.518
same,glycan array binding signal (z-score),[31],0.021
same,glycan array binding signal (z-score),Neu5Ac(a2-3)Gal(b1-4)Glc,-0.294
same,glycan array binding signal (z-score),[32],-0.512
same,glycan array binding signal (z-score),[33],0.164
same,glycan array binding signal (z-score),[34],-0.488
same,glycan array binding signal (z-score),[35],-0.415
same,glycan array binding signal (z-score),[36],-0.227
same,glycan array binding signal (z-score),[37],-0.479
same,glycan array binding signal (z-score),[38],0.125
same,glycan array binding signal (z-score),[39],-0.017
same,glycan array binding signal (z-score),[40],0.068
same,glycan array binding signal (z-score),[41],0.139
same,glycan array binding signal (z-score),[42],0.177
same,glycan array binding signal (z-score),[43],-0.329
same,glycan array binding signal (z-score),[44],-0.301
same,glycan array binding signal (z-score),[45],0.672
